{"source": "the supplement of paper PMC11417369", "note": "± gives the standard deviation of the averaged measurements. This is one part of the list.", "data": [{"tested_on": "PfAP2-EXP AP2 domain (GST-tagged)", "assay": "gcPBM binding intensity (ln(normalized median fluorescence intensity)); higher = stronger DNA binding", "outline": "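GST-tagged P. falciparum DNA-binding domains produced in E. coli were incubated for 1 h on an Agilent 4 × 180k array of primer-extended double-stranded 36-bp intergenic genomic probes with negative controls. Binding intensity is the highest Masliner-normalised natural-log median intensity across replicate spots of either probe orientation, with bound protein detected by Alexa488 anti-GST antibody at 488 nm.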", "values": [{"sequence": "ATAATAATAAAAATTATACATAAGTATATGCACATA [XGTACX_negctrl_site583]", "gcPBM binding intensity (ln)": 8.43}, {"sequence": "TATAAACCATAATTAACACACAAAATAAGTTACATA [CACACA_site3227]", "gcPBM binding intensity (ln)": "8.71 ± 0.28"}, {"sequence": "ACATATGGTATTTAAACACACAAAAAAGAAAGAAAA [CACACA_site991]", "gcPBM binding intensity (ln)": "8.77 ± 0.52"}, {"sequence": "TTTTGCTTTTTTTTTCTTTTTTGTTTTATATATATT [CACACA_negctrl_site103]", "gcPBM binding intensity (ln)": "8.51 ± 0.53"}, {"sequence": "TTGACATATAAGATATGTACTAATACACACACATAT [XGTACX_site1904]", "gcPBM binding intensity (ln)": "8.52 ± 0.29"}, {"sequence": "AAATAATAAAACAACACACAAATAGTTAAAATAGAA [CACACA_site5007]", "gcPBM binding intensity (ln)": "8.85 ± 0.47"}, {"sequence": "ACATTCTATATATACACACATACATAATAAAGAAAG [CACACA_site2771]", "gcPBM binding intensity (ln)": "8.71 ± 0.38"}, {"sequence": "TTTTAATGATATATGAGTACACATTGTTTTTTATAA [XGTACX_site1072]", "gcPBM binding intensity (ln)": "8.4 ± 0.23"}, {"sequence": "ATATAATGATGGAAAAGAAAAGAAATAAAAAAAAAA [CACACA_negctrl_site1170]", "gcPBM binding intensity (ln)": "8.49 ± 0.49"}, {"sequence": "AGAGAAAGAAGGGAGAAAAAATAAAATAAAATAAAA [GTGCAC_negctrl_site299]", "gcPBM binding intensity (ln)": "8.74 ± 0.42"}, {"sequence": "AATAAAAAAAAACTCATGCACACAATATTATGAAAA [CACACA_site664]", "gcPBM binding intensity (ln)": "8.67 ± 0.44"}, {"sequence": "TGCATATGCATTATTTGTACATATGTAGATAATTAT [XGTACX_site6930]", "gcPBM binding intensity (ln)": "8.79 ± 0.3"}, {"sequence": "CATATATAGATATATACACACATACATACATACATA [CACACA_site7748]", "gcPBM binding intensity (ln)": "8.55 ± 0.38"}, {"sequence": "AATAAAATAAATATATGTACATATATATAACCATTA [XGTACX_site5549]", "gcPBM binding intensity (ln)": "8.61 ± 0.33"}, {"sequence": "AAAAATTACAAATACAAACACACAAATGTTTTTCAT [CACACA_site3551]", "gcPBM binding intensity (ln)": "8.17 ± 0.38"}, {"sequence": "AGTTTATTTGTAAAAAGTACATATTTAAGAAAACTT [XGTACX_site2318]", "gcPBM binding intensity (ln)": "8.45 ± 0.28"}, {"sequence": "AAATTTGGCAAACACACACACACACCCACACCCACA [CACACA_site8095]", "gcPBM binding intensity (ln)": "8.63 ± 0.47"}, {"sequence": "TTCTAACTCTAACAAGTGCAATATATATACATAATA", "gcPBM binding intensity (ln)": "8.56 ± 0.17"}, {"sequence": "AATATATATCATCACACACACATACATAAATATATA [CACACA_site184]", "gcPBM binding intensity (ln)": "8.68 ± 0.39"}, {"sequence": "ATAGAATACATATATGAACACACAGAGTTTTAAAAA [CACACA_site8879]", "gcPBM binding intensity (ln)": "8.68 ± 0.57"}, {"sequence": "AATACATATAAAAGTACACACACACCCATATATATA [CACACA_site8220]", "gcPBM binding intensity (ln)": "8.85 ± 0.44"}, {"sequence": "TATATTATATATATGTGTACATATAAATGTAACAAA [XGTACX_site5025]", "gcPBM binding intensity (ln)": "8.32 ± 0.31"}, {"sequence": "TTTTTTTTTTGATGTTGTACATATATACTATATAAT [XGTACX_site1332]", "gcPBM binding intensity (ln)": "8.57 ± 0.44"}, {"sequence": "GAAAATAAAAAAAATAAAAAAAATAAAAAAAATTAT [XGTACX_negctrl_site443]", "gcPBM binding intensity (ln)": "8.13 ± 0.51"}, {"sequence": "TTTTGTAACCTATGCACGCACACAAGAAAAAAACAA [CACACA_site3776]", "gcPBM binding intensity (ln)": "8.71 ± 0.41"}, {"sequence": "TAAATATCTAAAGACTGTACAATTAAATATAAACAT [XGTACX_site1450]", "gcPBM binding intensity (ln)": "8.52 ± 0.3"}, {"sequence": "TTATAAAGAACACAGACACACAAAGAAAGAACCAAT [CACACA_site4175]", "gcPBM binding intensity (ln)": "9.05 ± 0.51"}, {"sequence": "CACAAATAAATACATACACACATATATACTCATATA [CACACA_site4379]", "gcPBM binding intensity (ln)": "8.37 ± 0.49"}, {"sequence": "TTACACAAATAGCTGCATTTATAAAATACAATTAAA [CACACA_negctrl_site241]", "gcPBM binding intensity (ln)": "8.31 ± 0.39"}, {"sequence": "TGGGCGTCATAATGAACACACAATTATATTATGACT [CACACA_site3910]", "gcPBM binding intensity (ln)": "8.4 ± 0.36"}, {"sequence": "AAATATATATATTTACGTACATATATACAAATAGAG [XGTACX_site6067]", "gcPBM binding intensity (ln)": "8.72 ± 0.27"}, {"sequence": "ATATATATAATAATATGTACGGAAAAAGCTTAAGCT [XGTACX_site5661]", "gcPBM binding intensity (ln)": "8.88 ± 0.46"}, {"sequence": "TTTTGTCAATTTTAGATTTTTCAATACATGGATATT [CACACA_negctrl_site319]", "gcPBM binding intensity (ln)": "8.22 ± 0.48"}, {"sequence": "ATATATATATATTTATGTACGAATATGTTTAATTTA [XGTACX_site3986]", "gcPBM binding intensity (ln)": "9.86 ± 0.19"}, {"sequence": "AATATATTCCACATGTGTACATATATATATATATAT [XGTACX_site8006]", "gcPBM binding intensity (ln)": "10.3 ± 0.24"}, {"sequence": "AAAAATAAAGAAACAGGTACGCATATATTAAGATAT [XGTACX_site8097]", "gcPBM binding intensity (ln)": "8.95 ± 0.47"}, {"sequence": "TTTCCTTCTACAAAAAATTTTATCAAGAGGAAGTAC [CACACA_negctrl_site926]", "gcPBM binding intensity (ln)": "8.64 ± 0.33"}, {"sequence": "TGTCACTACAAATGAGTGCATTAAATAATTTGGAAA", "gcPBM binding intensity (ln)": "8.98 ± 0.41"}, {"sequence": "CCATAGATATTTTATACACACATATAATATATTAAG [CACACA_site4363]", "gcPBM binding intensity (ln)": "8.55 ± 0.45"}, {"sequence": "AATATTATTTATATTTGTACACAGTAATATAAAATA [XGTACX_site4884]", "gcPBM binding intensity (ln)": "8.34 ± 0.3"}, {"sequence": "ATATGCAAAGAGTATAATCAAAATGTAAATAAATAA [GTGCAC_negctrl_site141]", "gcPBM binding intensity (ln)": "8.78 ± 0.4"}, {"sequence": "CGAACACAAACACAAACACACATCAGATATAAATAT [CACACA_site6736]", "gcPBM binding intensity (ln)": "8.53 ± 0.7"}, {"sequence": "ATTTTAGGAAAAAAAAGTACATATAATTTTTTATAT [XGTACX_site6954]", "gcPBM binding intensity (ln)": "8.19 ± 0.31"}, {"sequence": "TGTTTGCTTATGTGTTAAATATATATATATATATAT [TGCATGCA_negctrl_site218]", "gcPBM binding intensity (ln)": "9.44 ± 1.5"}, {"sequence": "TTTTTTTTGATATATACACACAATAAATAAATATAA [CACACA_site7400]", "gcPBM binding intensity (ln)": "8.39 ± 0.38"}, {"sequence": "ATTTATTATTATATCACACATAATATATTAAATGAT [CACACA_site5821]", "gcPBM binding intensity (ln)": "8.28 ± 0.39"}, {"sequence": "AAAAATATAAAAATAGCACACATATATACATATATA [CACACA_site7901]", "gcPBM binding intensity (ln)": "8.34 ± 0.4"}, {"sequence": "TATGGAGAAATAAATAGTACGTATTTTATTTAAAAA [XGTACX_site3129]", "gcPBM binding intensity (ln)": "8.54 ± 0.23"}, {"sequence": "CTTGCAAAAAGTATATGTACATATATATATATATAT [XGTACX_site5792]", "gcPBM binding intensity (ln)": "9.9 ± 0.2"}, {"sequence": "TTTCCTAGCACATGCACACAAAAAAAAAAAAAAAAA [CACACA_site1404]", "gcPBM binding intensity (ln)": "8.35 ± 0.35"}, {"sequence": "ATGTTCGATGATAAATGTACAAAAATAATGGAAGTA [XGTACX_site1916]", "gcPBM binding intensity (ln)": "9.06 ± 0.52"}, {"sequence": "TATAAAAATATTGAAAGTACTTATTAAAATATTATT [XGTACX_site3701]", "gcPBM binding intensity (ln)": "8.31 ± 0.4"}, {"sequence": "TATTCCTAATTGACAACACACACAACAAAAAAGGGA [CACACA_site8350]", "gcPBM binding intensity (ln)": "9.03 ± 0.63"}, {"sequence": "AGAATTATTTTATGTTTGCACTTTTTTTTTCTATAA [GTGCAC_site9876]", "gcPBM binding intensity (ln)": "8.9 ± 0.39"}, {"sequence": "TAATGAAATATTATGTGTACTTAAAAATTATTAAAT [XGTACX_site5261]", "gcPBM binding intensity (ln)": "8.17 ± 0.28"}, {"sequence": "ATTATTAACATATATATACACACGAAAAAATTATAT [CACACA_site625]", "gcPBM binding intensity (ln)": "8.87 ± 0.47"}]}]}
